{
  "source": "PubChem BioAssay AID1347417",
  "about": "(National Center for Advancing Translational Sciences (NCATS), 2020)",
  "note": "Out of some 120,000 compounds screened, about 5,300 (4.4%) were called active. The shares of active, inactive and inconclusive entries below differ from those in the screen. The call rests on the fitted dose curve; in most records, active means well fitted inhibition curve with a large enough effect; inconclusive means small, poorly fitted or top-dose-only effect; inactive means no such curve, though single readings can be large or run the other way. Potencies beside an inconclusive call are fits to weak or partial responses and may not hold up. Potency means the concentration at half of the fitted maximal effect; tags describe the fitted curve by direction and shape.",
  "data": [
    {"experiment": "qHTS Primary assay for Inhibitors of Plasmodium falciparum Dd2 growth in vitro; further: nearly all actives have a fitted effect of over 65% in size;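 on activity, negative = inhibition: plate controls were DMSO vehicle for no effect and reference drug for full effect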", "details": "P. falciparum Dd2 growth, SYBR Green, 72 h; activity, negative = inhibition: at 28.9 µM (top of the series) unless noted; series mostly up to 28.9 µM", "method_in_brief": "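Readout: SYBR Green fluorescence, 485 nm excitation, 535 nm emission, after ~16 h lysis at 37C. Before that, Dd2-infected red cells (2.5% hematocrit) grew 72 h with compound, 29 uM top final concentration.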", "values": [
      {"compound": "CCOc1ccc(N(C)C(=O)c2oc(=O)c3ccccc3c2-c2ccccc2)cc1", "Potency": "inconclusive: 0.0089 µM [inhibitor, full curve, poor fit]"},
      {"compound": "Cn1cnc2ccc(-c3ccncc3)nc2c1=O", "Potency": "inconclusive: 39.8 µM [inhibitor, partial curve, poor fit]"},
      {"compound": "O=C(CC(c1ccccc1)c1ccc2c(c1)OCO2)N1CCCCCC1", "note": "(stereo not drawn)", "Potency": "inconclusive: 17.8 µM [inhibitor, single point]"},
      {"compound": "O=C(O)CCc1nc(C2CCOCC2)nn1CC1CCCCC1", "Potency": "inactive"},
      {"compound": "CN(C)c1ccc(C(=O)N2CCC(Oc3nccnc3N(C)C)C2)cc1", "note": "(stereo not drawn)", "Potency": "inconclusive: 12.6 µM [inhibitor, single point]"},
      {"compound": "CN(C(=O)Cn1nc(Cc2cccnc2)c2ccccc2c1=O)c1cccc(C(F)(F)F)c1", "Potency": "inconclusive: 17.8 µM [inhibitor, single point]"},
      {"compound": "COc1ccc2nc(C[C@@H]3C[C@@H](C(C)C)[C@H](CN(Cc4ccccc4F)Cc4ccccc4F)C=C3C)[nH]c2c1", "Potency": "inconclusive: 1.41 µM [inhibitor, partial curve, poor fit]"},
      {"compound": "CN(Cc1ccc(F)cc1)Cc1cccc2ccccc12", "Potency": "inconclusive: 5.01 µM [inhibitor, partial curve, poor fit]"},
      {"compound": "COC(=O)[C@@H]1Cc2c([nH]c3ccccc23)[C@H]2C[C@@H](NCCNC(C)=O)C[C@@H](c3ccc(C(C)C)cc3)N21", "Potency": "inactive"},
      {"compound": "O=S(=O)(c1ccccc1)N1CC[C@@H]2COCCN(Cc3cccnc3)[C@@H]2C1", "Potency": "inconclusive: 10 µM [inhibitor, single point]"},
      {"compound": "Cc1ccc(Cn2cc(-c3ccncc3)cc2C(=O)NCC2CC2)cc1", "Potency": "active: 11.2 µM"},
      {"compound": "CCCCC1CCC(C(=O)N2CC(=O)Nc3ccc(Br)cc3C2c2ccc(F)cc2)CC1", "note": "(stereo not drawn)", "Potency": "active: 10 µM"},
      {"compound": "CC(C)N1C[C@H](C(=O)NCCOc2ccccc2)[C@H](C(=O)O)C1", "Potency": "inconclusive: 10 µM [inhibitor, single point]"},
      {"compound": "Cc1cc(Cl)ccc1NC(=O)CCCn1nc(C)c2c(C)n(-c3ccccc3)nc2c1=O", "activity, negative = inhibition": "inconclusive: -160% [inhibitor] [at 5.79 µM]"},
      {"compound": "COc1ncccc1C(=O)N1Cc2cnn(Cc3ccc(F)cc3)c2C1", "Potency": "inactive"},
      {"compound": "CCCCN(C)S(=O)(=O)c1ccc(C(=O)Nc2ccc(-c3nc4ccc(C)cc4s3)cc2)cc1", "Potency": "inconclusive: 0.0794 µM [inhibitor, full curve, poor fit]"},
      {"compound": "O=C(CCC1CCCC1)NC1CCN(c2cnn(Cc3ccccc3)c(=O)c2)CC1", "Potency": "inconclusive: 15.8 µM [inhibitor, partial curve, poor fit]"},
      {"compound": "COc1ccc(-c2cn3c(n2)CO[C@@H](CNS(C)(=O)=O)C3)cc1", "Potency": "inactive"},
      {"compound": "N#Cc1ccc(O[C@@H]2CCOC[C@H]2NC(=O)CCCn2cncn2)cc1", "Potency": "inactive"},
      {"compound": "CC(=O)N1CCc2c(sc3c2c(=O)n(-c2ccc(C)cc2)c(=O)n3Cc2ccccc2C)C1", "Potency": "inconclusive: 17.8 µM [inhibitor, single point]"},
      {"compound": "CCOC(=O)CCNC(=O)N1CCC(Oc2ncccc2C(=O)N2CCCCC2)C1", "note": "(stereo not drawn)", "Potency": "inconclusive: 3.98 µM [inhibitor, single point]"},
      {"compound": "COc1ccc(C2(C(=O)N[C@@H]3CN(c4ncccn4)C[C@H]3CN(C)C)CC2)cc1", "Potency": "inconclusive: 6.31 µM [inhibitor, partial curve, poor fit]"},
      {"compound": "CCCN(C(=O)Nc1cn(CC(C)C)c(=O)c2ccccc12)c1ccc(F)cc1", "Potency": "inconclusive: 17.8 µM [inhibitor, single point]"},
      {"compound": "Cc1ccc(Nc2cc(C)c(C#N)c3nc4ccccc4n23)c(C)c1", "Potency": "inactive"},
      {"compound": "COC(=O)CNC(=O)N1CCCN(Cc2ccncc2)C(c2ccccc2)CC(=O)NCC1", "note": "(stereo not drawn)", "Potency": "inconclusive: 20 µM [inhibitor, single point]"},
      {"compound": "CC(C)N1C[C@H](O)C[C@H]1c1nc(-c2cccc([N+](=O)[O-])c2)no1", "Potency": "inactive"},
      {"compound": "CNC(=O)c1cc[nH]c1C1CCCN(Cc2ccsc2)C1", "note": "(stereo not drawn)", "Potency": "inconclusive: 7.94 µM [inhibitor, partial curve, poor fit]"},
      {"compound": "C=CCN1CC(C(=O)N2CCn3nc(Cc4ccccc4)cc3C2)CC1=O", "note": "(stereo not drawn)", "Potency": "inactive"},
      {"compound": "COc1cccc(CCC2CCCNC2)c1", "note": "(stereo not drawn)", "Potency": "inconclusive: 17.8 µM [inhibitor, single point]"},
      {"compound": "CCOc1ccc(Cl)cc1CN(C)CC1(O)CCCNC1", "note": "(stereo not drawn)", "Potency": "inconclusive: 1.41 µM [inhibitor, full curve]"},
      {"compound": "Cc1nnc(NC2CC(c3cc(=O)[nH]c(C4CC4)n3)C2)c2ccccc12", "note": "(stereo not drawn)", "Potency": "inconclusive: 14.1 µM [inhibitor, partial curve, poor fit]"},
      {"compound": "O=C(Nc1ccccc1)N[C@H]1CO[C@H]2[C@@H]1OC[C@@H]2Nc1nccc(C2CCCC2)n1", "Potency": "inactive"},
      {"compound": "CCOC(=O)c1cc(C)n(CC(=O)N2CCCOCCNC(=O)CC2)c1C", "Potency": "inactive"},
      {"compound": "COc1cccc(CN2CCOC3CCN(Cc4ccccc4O)CC3C2=O)c1", "note": "(stereo not drawn)", "Potency": "inconclusive: 1.12 µM [inhibitor, full curve]"},
      {"compound": "CCOC(=O)c1cnc2c(C)cccc2c1Nc1ccc(OC(C)C)cc1", "Potency": "inactive"},
      {"compound": "NCCC[C@@H](N)C(=O)N1CCCC(c2ccccc2)(c2ccccc2)C1", "Potency": "inconclusive: 11.2 µM [inhibitor, single point]"},
      {"compound": "Cc1cccc(OCCCn2c(CCNC(=O)C3CCCCC3)nc3ccccc32)c1", "Potency": "active: 14.1 µM"},
      {"compound": "Cn1c(=O)[nH]c(=O)c2c1nc(CN1CCN(c3ccccc3F)CC1)n2Cc1ccc(F)cc1", "Potency": "inconclusive: 17.8 µM [inhibitor, single point]"},
      {"compound": "O=C(c1ccc(-c2ccco2)cc1)N1CCOc2ccc(CN3CCN(c4ccccn4)CC3)cc2C1", "Potency": "inconclusive: 10 µM [inhibitor, single point]"},
      {"compound": "COc1cccc(-c2nc(SCC(=O)Nc3ccc4c(c3)OCCO4)c(-c3ccc(C)cc3)[nH]2)c1", "Potency": "inconclusive: 17.8 µM [inhibitor, single point]"},
      {"compound": "COc1ccc(Cl)cc1NC(=O)c1cc(S(=O)(=O)N(C)Cc2ccccc2)ccc1F", "Potency": "inactive"},
      {"compound": "Cc1cc(F)ccc1NC(=O)CCn1nc(C)c(S(=O)(=O)N2CCCCC2)c1C", "Potency": "inactive"},
      {"compound": "Cc1ccc(OCC(=O)N2CCC(N3CC4CC(C3)[C@H]3CCCC(=O)N3C4)CC2)cc1", "note": "(stereo partly drawn)", "Potency": "inactive"},
      {"compound": "Cc1ccc(C)c(N2CCN(C(=O)C(CC(C)C)NS(=O)(=O)c3ccc4nc(C)sc4c3)CC2)c1", "note": "(stereo not drawn)", "Potency": "active: 7.94 µM"},
      {"compound": "O=C(NCc1cccnc1)[C@@H]1C[C@@H](O)CN1C1CCN(C(=O)c2cc3ccccc3[nH]2)CC1", "Potency": "inactive"},
      {"compound": "CCn1c(CO)nnc1C1CC(NC(=O)CCc2n[nH]c3c2CCCC3)C1", "note": "(stereo not drawn)", "Potency": "inactive"},
      {"compound": "NC(=O)CSc1nc2ccc(NC(=O)COc3ccccc3Cl)cc2s1", "Potency": "inconclusive: 17.8 µM [inhibitor, single point]"},
      {"compound": "CCn1cc(S(=O)(=O)N2CCCN(Cc3ccncc3)C(c3ccccc3)CC(=O)NCC2)cn1", "note": "(stereo not drawn)", "Potency": "inconclusive: 1.58 µM [inhibitor, partial curve, poor fit]"},
      {"compound": "CS(=O)(=O)N(Cc1ccccc1)c1ccc(C(=O)Nc2ccc(Cl)cc2)cc1", "Potency": "inconclusive: 7.08 µM [inhibitor, partial curve, poor fit]"},
      {"compound": "O=S(=O)(c1ccccc1)N1Cc2ccccc2CC2(CCN(Cc3cccnc3)C2)C1", "note": "(stereo not drawn)", "Potency": "active: 6.31 µM"},
      {"compound": "Cc1ccc(S(=O)(=O)NC[C@H]2OC[C@@H](NCc3cccc(C#N)c3)[C@@H]2O)cc1", "Potency": "inactive"},
      {"compound": "CN(C)C[C@@H]1CN(C)C[C@H]1NS(=O)(=O)c1cccc(C(F)(F)F)c1", "Potency": "active: 3.55 µM"},
      {"compound": "O=C(NCc1ccccc1)C1CCC(=O)N1C1CCN(C(=O)c2cc(F)cc(F)c2)CC1", "note": "(stereo not drawn)", "Potency": "inconclusive: 5.62 µM [inhibitor, partial curve, poor fit]"},
      {"compound": "COCCN1Cc2ccc(NCC(C)C)nc2C(C)(C(=O)Nc2ccc(OC)cc2)C1", "note": "(stereo not drawn)", "Potency": "inconclusive: 1.12 µM [inhibitor, partial curve, poor fit]"},
      {"compound": "Cc1nc(-c2cn(C3CCCN(C(=O)C(C)Oc4ccccc4)C3)nn2)no1", "note": "(stereo not drawn)", "Potency": "inconclusive: 1.58 µM [inhibitor, partial curve, poor fit]"},
      {"compound": "COCCN1C(=O)c2ccccc2C(C(=O)Nc2nc3ccccc3[nH]2)C12CCCC2", "note": "(stereo not drawn)", "Potency": "inconclusive: 1.78 µM [inhibitor, full curve, poor fit]"},
      {"compound": "Cn1cc(S(=O)(=O)c2cccc(Cl)c2)c(=O)c2cc(F)c(N3CCCCC3)cc21", "Potency": "inactive"},
      {"compound": "CCc1cc(=O)n(CC(=O)Nc2cc(OC)c(OC)c(OC)c2)c(N2CCOCC2)n1", "Potency": "inactive"},
      {"compound": "Fc1ccccc1CN1CCNc2cc(Nc3ccccc3)ncc2C1", "Potency": "inactive"},
      {"compound": "CO[C@H]1C(=O)N(C(C)C)[C@H]1C1CCN(C(=O)c2cccc(C#N)c2)CC1", "Potency": "inactive"},
      {"compound": "O=C(Nc1ncc(-c2ccccc2)c2c1OCC2)c1cn[nH]c1", "Potency": "inactive"},
      {"compound": "CCCn1cc2c3c(cccc31)CN(C(=O)COc1ccccc1)CC2", "Potency": "inconclusive: 20 µM [inhibitor, partial curve, poor fit]"},
      {"compound": "Cc1ccc(C(=O)N2[C@@H]3CC[C@H]2CC(NC(=O)c2ccncc2)C3)cn1", "note": "(stereo partly drawn)", "Potency": "inactive"},
      {"compound": "CN(Cc1ccc(F)cc1)C1CCOc2ccccc21", "note": "(stereo not drawn)", "Potency": "inactive"},
      {"compound": "O=C(Nc1ccccc1C(F)(F)F)N1CC=C(c2c[nH]c3ccccc23)CC1", "Potency": "inconclusive: 11.2 µM [inhibitor, single point]"},
      {"compound": "COC(=O)CC(=O)CSc1nc2cc(C(=O)NCC(C)C)ccc2c(=O)n1CCc1ccccc1", "Potency": "active: 11.2 µM"},
      {"compound": "Cc1nn(C)c(C)c1CCC(=O)NCCc1ncc(C)n1Cc1ccc(F)cc1", "Potency": "inconclusive: 5.01 µM [inhibitor, partial curve]"},
      {"compound": "Cc1cc(=O)n(CC(=O)Nc2ccc(C)c(F)c2)c(N(C)Cc2ccccc2)n1", "Potency": "inactive"}
    ]}
  ]
}
